From a collection of fitness landscapes (doi:10.1016/j.celrep.2020.107928)
Whole data set: some 81,000 sequences, median “one-hybrid fitness for binding NBS DNA” near -0.1, cut for the highest 2% near 0.36. This is one part of the list.

B1: Caulobacter ParB omega fusion; a variant is named by its letters at X, in order, B8GW30 (parent)
chain: MESVVVGEPGMSEGRRGLGRGLSALLGEVDAAPAQAPGEQLGGSREAPIEILQRNPDQPRRTFREEDLEDLSNSIREKGVLQPILVRPSPDTAGEYQIVAGERAWRAAQRAGLKTVPIMVRELDDLAVLEIGIIENVQRADLNVLEEALSYKVLMEKFERTQENIAQTIGKSXSHVANXMRLLXLPDEVQSYLVSGELTAXHARAIAAAADPVALAKQIIEGGLSVRETEALARKAPNLSAGKSKGGRPPRVKDTDTQALESDLSSVLGLDVSIDHRGSTGTLTITYATLEQLDDLCNRLTRGI

Variants of: B1
Experiment: one-hybrid fitness for binding NBS DNA (the Noc-binding site; scaled: cognate 1, non-cognate 0); higher = stronger binding
Conditions: with NBS DNA site
In short: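 In E. coli USO, a HIS3 reporter with its site placed 19 bp from the promoter was used to select Caulobacter ParB variants randomised at four specificity codons. Growth lasted 48 hours at 37°C on histidine-free M9 containing 0.1 mM IPTG and 5 mM 3-AT. Fitness was taken as the log change in variant-to-wild-type read ratio from Illumina sequencing of pre- and post-selection plasmids, rescaled between the non-cognate and cognate sites.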

| Variant | one-hybrid fitness for binding NBS DNA |
| --- | --- |
| PNHC | ≤ 0.2 |
| RHMF | ≤ 0.2 |
| RAVL | ≤ 0.2 |
| NWLS | ≤ 0.2 |
| SEIG | ≤ 0.2 |
| NTDL | ≤ 0.2 |
| DDPG | ≤ 0.2 |
| IDIG | ≤ 0.2 |
| DELT | ≤ 0.2 |
| LYNA | ≤ 0.2 |
| RMDR | ≤ 0.2 |
| NSGI | ≤ 0.2 |
| VPET | ≤ 0.2 |
| PSSK | ≤ 0.2 |
| CWTT | ≤ 0.2 |
| EQIG | ≤ 0.2 |
| HVDD | ≤ 0.2 |
| TGSA | ≤ 0.2 |
| KTCM | ≤ 0.2 |
| MVRY | ≤ 0.2 |
| HYFI | ≤ 0.2 |
| YGHS | ≤ 0.2 |
| AQKG | ≤ 0.2 |
| RLFA | ≤ 0.2 |
| NVCA | ≤ 0.2 |
| CLQC | ≤ 0.2 |

| Variant | one-hybrid fitness for binding NBS DNA |
| --- | --- |
| THYF | ≤ 0.2 |
| RRKT | 0.814 |
| AIYC | ≤ 0.2 |
| NYEL | ≤ 0.2 |
| IRVD | ≤ 0.2 |
| NSTP | ≤ 0.2 |
| SSNF | ≤ 0.2 |
| RQSQ | ≤ 0.2 |
| IGIS | ≤ 0.2 |
| VLKS | ≤ 0.2 |
| GSLW | ≤ 0.2 |
| CRCL | ≤ 0.2 |
| NTLK | ≤ 0.2 |
| AFHE | ≤ 0.2 |
| NPTH | ≤ 0.2 |
| ACNV | ≤ 0.2 |
| KQTK | ≤ 0.2 |
| LNRG | ≤ 0.2 |
| IPIR | ≤ 0.2 |
| MRAG | ≤ 0.2 |
| YGYE | ≤ 0.2 |
| LMQS | ≤ 0.2 |
| DVVS | ≤ 0.2 |
| AAAL | ≤ 0.2 |
| QTQD | ≤ 0.2 |
| DCTV | ≤ 0.2 |

| Variant | one-hybrid fitness for binding NBS DNA |
| --- | --- |
| QAEV | ≤ 0.2 |
| TWVT | ≤ 0.2 |
| MRNC | ≤ 0.2 |
| YPGC | ≤ 0.2 |
| MERL | ≤ 0.2 |
| GKCY | ≤ 0.2 |
| PLYL | ≤ 0.2 |
| SAGA | ≤ 0.2 |
| LSPD | ≤ 0.2 |
| IGQG | ≤ 0.2 |
| FYVG | ≤ 0.2 |
| KVGR | ≤ 0.2 |
| LLIL | ≤ 0.2 |
| HWAG | ≤ 0.2 |
| TYEV | ≤ 0.2 |
| PCGR | ≤ 0.2 |
| SWTF | ≤ 0.2 |
| SWLY | ≤ 0.2 |
| DELY | ≤ 0.2 |
| RCYQ | ≤ 0.2 |
| YIAR | ≤ 0.2 |
| SPPT | ≤ 0.2 |
| NCHG | ≤ 0.2 |
| VQSF | ≤ 0.2 |
| LVPK | ≤ 0.2 |
| EYCL | ≤ 0.2 |

| Variant | one-hybrid fitness for binding NBS DNA |
| --- | --- |
| RSPD | ≤ 0.2 |
| PPCL | ≤ 0.2 |
| PTAD | ≤ 0.2 |
| NNPC | ≤ 0.2 |
| VATS | ≤ 0.2 |
| HSNC | ≤ 0.2 |
| GMMF | ≤ 0.2 |
| QLPR | 0.232 |
| TTAD | ≤ 0.2 |
| RLRD | ≤ 0.2 |
| QKVF | ≤ 0.2 |
| YYSN | ≤ 0.2 |
| VARQ | ≤ 0.2 |
| SDLG | ≤ 0.2 |
| RHFR | 0.206 |
| NGHF | ≤ 0.2 |
| VSFP | ≤ 0.2 |
| HHRF | ≤ 0.2 |
| QYNQ | ≤ 0.2 |
| VENW | ≤ 0.2 |
| RTKM | 0.303 |
| GVSW | ≤ 0.2 |
| GRRH | ≤ 0.2 |
| RGKD | ≤ 0.2 |
| VKTG | ≤ 0.2 |
| PGDF | ≤ 0.2 |

| Variant | one-hybrid fitness for binding NBS DNA |
| --- | --- |
| LDLN | ≤ 0.2 |
| DRFL | ≤ 0.2 |
| LPDS | ≤ 0.2 |
| AILF | ≤ 0.2 |
| HMTH | ≤ 0.2 |
| RFCI | ≤ 0.2 |
| VHPM | ≤ 0.2 |
| SPHF | ≤ 0.2 |
| QGAV | ≤ 0.2 |
| YNHG | ≤ 0.2 |
| GWGS | ≤ 0.2 |
| YTDL | ≤ 0.2 |
| SNPR | ≤ 0.2 |
| QCEY | ≤ 0.2 |
| ALFK | ≤ 0.2 |
| KDAE | ≤ 0.2 |
| MCPV | ≤ 0.2 |
| TVTT | ≤ 0.2 |
| QHFN | ≤ 0.2 |
| GYSP | ≤ 0.2 |
| VSKE | ≤ 0.2 |
| VITC | ≤ 0.2 |
| RADT | ≤ 0.2 |
| YSAD | ≤ 0.2 |
| NCSS | ≤ 0.2 |
| VGPL | ≤ 0.2 |

| Variant | one-hybrid fitness for binding NBS DNA |
| --- | --- |
| RSNE | ≤ 0.2 |
| TTQG | ≤ 0.2 |
| VPKS | ≤ 0.2 |
| AATV | ≤ 0.2 |
| PMVA | ≤ 0.2 |
| HNSQ | ≤ 0.2 |
| CNSV | ≤ 0.2 |
| PNSL | ≤ 0.2 |
| LLST | ≤ 0.2 |
| TLNR | ≤ 0.2 |
| AAWC | ≤ 0.2 |
| PTGA | ≤ 0.2 |
| DNKT | ≤ 0.2 |
| QQEY | ≤ 0.2 |
| CRNV | ≤ 0.2 |
| NAWG | ≤ 0.2 |
| EYWD | ≤ 0.2 |
| GQIL | ≤ 0.2 |
| FKNS | ≤ 0.2 |
| CQSN | ≤ 0.2 |
| SCIT | ≤ 0.2 |
| MTMT | ≤ 0.2 |
| DDSS | ≤ 0.2 |
